The whole screen tested about 310,000 compounds, of which about 2,200 (0.71%) showed an effect of 50% or more. The effect is printed as a negative number. This is one part of the list.
molecular target: human ether-à-go-go-related gene (hERG) potassium channel (human, UniProt Q12809); assay: primary screen, population patch clamp on CHO cells stably expressing hERG
Sequence (Q12809 whole entry, looked up): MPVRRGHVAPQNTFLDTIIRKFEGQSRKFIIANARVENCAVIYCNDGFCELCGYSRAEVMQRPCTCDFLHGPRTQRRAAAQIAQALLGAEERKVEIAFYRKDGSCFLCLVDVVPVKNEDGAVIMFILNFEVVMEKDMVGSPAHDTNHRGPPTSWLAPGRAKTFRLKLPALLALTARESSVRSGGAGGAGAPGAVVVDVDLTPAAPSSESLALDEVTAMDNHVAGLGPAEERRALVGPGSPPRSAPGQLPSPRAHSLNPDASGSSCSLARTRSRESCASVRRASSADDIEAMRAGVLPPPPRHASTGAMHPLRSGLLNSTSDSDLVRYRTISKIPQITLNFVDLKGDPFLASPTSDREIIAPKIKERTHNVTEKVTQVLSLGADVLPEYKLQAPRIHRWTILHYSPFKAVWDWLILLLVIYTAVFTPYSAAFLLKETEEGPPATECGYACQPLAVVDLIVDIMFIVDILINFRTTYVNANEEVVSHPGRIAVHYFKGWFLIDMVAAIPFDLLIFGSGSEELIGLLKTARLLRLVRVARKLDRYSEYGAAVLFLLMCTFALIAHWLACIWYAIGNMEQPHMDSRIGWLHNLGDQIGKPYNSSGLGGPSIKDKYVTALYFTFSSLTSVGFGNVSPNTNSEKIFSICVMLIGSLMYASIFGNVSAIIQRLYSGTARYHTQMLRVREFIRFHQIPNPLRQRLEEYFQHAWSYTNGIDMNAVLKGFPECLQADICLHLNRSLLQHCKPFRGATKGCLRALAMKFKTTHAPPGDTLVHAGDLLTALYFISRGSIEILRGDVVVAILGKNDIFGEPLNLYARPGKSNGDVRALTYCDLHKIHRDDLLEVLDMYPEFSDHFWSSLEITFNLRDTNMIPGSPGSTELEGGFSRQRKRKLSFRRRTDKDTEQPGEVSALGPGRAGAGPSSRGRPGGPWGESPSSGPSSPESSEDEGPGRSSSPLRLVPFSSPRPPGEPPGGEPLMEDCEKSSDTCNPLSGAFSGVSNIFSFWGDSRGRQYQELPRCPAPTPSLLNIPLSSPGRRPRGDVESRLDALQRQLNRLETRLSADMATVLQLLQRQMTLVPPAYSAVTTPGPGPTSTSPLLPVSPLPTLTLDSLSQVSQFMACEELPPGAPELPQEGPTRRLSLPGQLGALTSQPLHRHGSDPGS

SMILES | hERG current change (%, negative = inhibition) at 1uM
CCOc1ccc(NC(=O)CN(C)C(=O)c2ccc(C)c(S(=O)(=O)N3CCCCC3)c2)cc1OCC | 12%
COc1ccc(OC)c(CNC(=O)C2CCCN(S(=O)(=O)N3CCC(C)CC3)C2)c1 (centres unmarked) | 8.76%
Cc1ccc(C)c(NC(=O)CSc2nc3c(oc4ccccc43)c(=O)n2-c2ccccc2)c1 | 16.2%
O=C(Cc1cccs1)NCc1cccs1 | -9.86%
COc1ccc(CNS(=O)(=O)c2ccc3c(c2)CCN3C(=O)C2CCC2)cc1 | 13.7%
O=C(CN(c1ccccn1)S(=O)(=O)c1ccccc1)N/N=C/c1cccc([N+](=O)[O-])c1 | 9.13%
CC1(c2ccc([N+](=O)[O-])cc2)Nc2ccccc2S1 (centres unmarked) | 10.9%
O=C(COC(=O)Cc1c[nH]c2ccccc12)Nc1c(Cl)cccc1C(F)(F)F | 4.18%
CCOc1cc(S(=O)(=O)N2CCN(C(=O)c3ccco3)CC2)ccc1F | -4.55%
CCOc1cc(C(=O)NCc2ccc3c(c2)OCO3)cc(OCC)c1OCC | 13.8%
N#Cc1ccc(NC(=O)C2CC(c3ccc(F)cc3)=NO2)cc1 (centres unmarked) | -13.5%
CCN1CCN(C2=C(NS(=O)(=O)c3ccc(NC(C)=O)cc3)C(=O)c3ccccc3C2=O)CC1 | 18.3%
O=C(/C=C(O)/C=C/c1ccc(O)cc1)/C=C/c1ccc(O)cc1 | 12.4%
Cc1cc(C)nc(N/N=C/c2ccccc2OCc2ccc(Cl)cc2)n1 | 4.85%
Cc1cccc(NS(=O)(=O)c2cc(OCC(N)=O)c(C)cc2Cl)c1 | 0.155%
Cc1cc(C)c(C(=O)N2CCCC(Nc3ccc(C)c(C)c3)C2)o1 (centres unmarked) | 53%
COc1ccc(N2CCN(C(c3cccs3)C(C)NC(=O)C(=O)N3CCCC3)CC2)cc1 (centres unmarked) | -4.23%
CCN(/N=C/c1ccccc1)c1cc(=O)n(C)c(=O)[nH]1 | 14%
C/C(CC(=O)NCc1ccco1)=N\NC(=O)COc1ccc(Cl)cc1Cl | -16.4%
COc1ccc(-c2cc([C@H]3[C@@H]4C=CCC[C@@]4(C)C(=O)N3Cc3ccccc3)ccc2F)cc1 | 9.61%
C[C@@H]1NC(=O)c2cc([N+](=O)[O-])cc(I)c2OCC[C@@H](C(N)=O)NC(=O)[C@H](CCCCN)NC1=O | 12.8%
O=C(COC(=O)c1cnc(Cl)c(Cl)c1)NCCC1=CCCCC1 | 12.5%

SMILES | hERG current change (%, negative = inhibition) at 1uM
Cc1cc(C)cc(NC(=O)Nc2ccc(N3CCCCC3)cc2)c1 | 12.9%
COCCNc1c([N+](=O)[O-])c(=O)n(-c2ccccc2)c2ccccc12 | -7.76%
O=C(CSc1nc2ccc(NC(=O)C3CCCCC3)cc2s1)NCC1CCCO1 (centres unmarked) | 5.19%
CC(OC(=O)C1CSC2(C)CCC(=O)N12)C(=O)Nc1ccc(F)cc1 (centres unmarked) | 12.9%
CCCCc1ccc(NC(=O)Nc2c(C)n(C)n(-c3ccccc3)c2=O)cc1 | -1.3%
O=C(NC12CC3CC(CC(C3)C1)C2)C1CCCN1C(=O)NC1CCCCC1 (centres unmarked) | 22.9%
Cc1cc(NC(=O)C(C)SCC(=O)NCc2ccc(F)cc2)no1 (centres unmarked) | 7.93%
COc1cc(/C(C)=N\NC(N)=S)cc(OC)c1OC | 6.79%
CCOc1cc2[nH]c(=O)n(CCCCCC(=O)NCc3ccco3)c(=O)c2cc1OCC | 6.61%
CN1CC=C2C(C#N)=C(N)C(C#N)(C#N)C(c3cccc(Cl)c3Cl)C2C1 (centres unmarked) | 5.52%
Cc1cc(NC(=O)CCC(=O)N(c2ccccc2)C2(C(=O)NC3CCCCC3)CCCC2)no1 | 10.1%
COc1ccc(-c2oc3c4c(cc(OC)c3c(=O)c2CC=C(C)C)OC(C)(C)C=C4)c(OC)c1 | 11.9%
Cn1c(-c2ccc(F)cc2)cc2onc(-c3ccccc3Cl)c2c1=O | 7.6%
O=C(Cc1c(Cl)cccc1Cl)Nc1cccnc1 | 13.3%
COCCCNCCCCOc1ccccc1-c1ccccc1.O=C(O)C(=O)O | -10.9%
CS(=O)(=O)c1ccc(C(=O)OCC(=O)c2ccc(Cl)s2)cc1 | 7.3%
CCCC1C(C(=O)OCC)=C(C)NC(C)=C1C(=O)OCC | 9.55%
O=C1C=CC(=C(c2ccc(O)cc2)c2ccc(O)cc2)C=C1 | 6.2%
Cc1cccc(NC(=O)CN(CC2CCCO2)C(=O)c2oc3ccc(F)cc3c2C)c1C (centres unmarked) | -2.57%
O=C(Nc1ccccn1)c1cc(-c2cccc(Cl)c2)nc2ccccc12 | 5.1%
CCOC(=O)c1c(CCl)nc2ccccc2c1C.Cl | -0.294%
CC(NC(=O)c1cccs1)C(c1cccs1)N1CCOCC1 (centres unmarked) | 11.9%

SMILES | hERG current change (%, negative = inhibition) at 1uM
Cc1ccnc(N2CCC(C(=O)Nc3ccc4c(c3)OCCO4)CC2)n1 | 8.06%
C=CCN1C(=O)/C(=C2/Sc3ccccc3N2C)SC1=Nc1c(C)n[nH]c1C | 6.45%
Cc1nonc1NC(=O)CSc1nc2cc(Cl)ccc2c2c1CCCC2 | 6.01%
CCn1nc(C)c(CNC(=O)C2CCC(=O)N(Cc3cccc(F)c3)C2)c1C (centres unmarked) | 17.5%
CCCCn1c(=O)[nH]c(=O)c2c1nc(-c1ccc(-c3ccccc3Br)o1)n2CCOC | 14.9%
CCCCCCC(=O)N/N=C/c1ccco1 | 5.51%
Oc1ccc(C=NCCc2ccccc2)cc1 | 8.66%
Cc1cc(C(=O)NCC(=O)Nc2c(C)cccc2C)c2ccccc2n1 | 13.3%
N#Cc1nc(COc2ccccc2)oc1N1CCN(Cc2ccccc2)CC1 | -3.01%
CCOC(=O)C1(Nc2nccs2)Sc2ccccc2NC1=O (centres unmarked) | -1.04%
COc1ccc(Cl)c(Cn2c(NCc3ccco3)nc3c2c(=O)n(C)c(=O)n3C)c1 | 15.8%
CCc1ccccc1NC(=O)c1cc(C2CC2)on1 | 0.142%
O=C1Nc2ccccc2C1C(C[N+](=O)[O-])c1ccccn1 (centres unmarked) | 13.9%
CCCCCCn1c(=O)[nH]c2nc3cc(N)ccc3nc2c1=O | 8.89%
CCOc1ccccc1NC(=O)CSc1nnc2c(CC)c(C)nc(N)n12 | 5.61%
CC(C)CC(=O)Nc1ccc(C(=O)NNC(=O)C(c2ccccc2)c2ccccc2)cc1 | 12.2%
C=CC[n+]1c(-c2ccccc2)csc1NC(C)(C)C.[Br-] | 11%
COc1ccc(CCNC(=O)CN(c2cccc([N+](=O)[O-])c2)S(C)(=O)=O)cc1OC | 14.2%
O=C(NCc1ccc2c(c1)OCO2)c1nc(Cn2cc([N+](=O)[O-])cn2)no1 | -12.9%
O=C(C(=O)N1CCOCC1)c1cn(Cc2c(F)cccc2Cl)c2ccccc12 | 11.6%
CCC(C)C(NC(=O)c1ccc(Cl)cc1Cl)C(=O)O (centres unmarked) | 16.7%
COc1ccc2nc(NC(=O)CCNS(=O)(=O)c3ccc4c(c3)oc(=O)n4C)sc2c1 | 2.87%

SMILES | hERG current change (%, negative = inhibition) at 1uM
CC(OC(=O)c1n[nH]c2ccccc12)C(=O)Nc1ccccc1[N+](=O)[O-] (centres unmarked) | 11.4%
Cc1cccc(C)c1Nc1c(-c2ccc(N3CCOCC3)cc2)nc2cnccn12 | 7.49%
CCOC(=O)CON1C(=O)C(=O)N(OCC(=O)OCC)C2CCCCC21 (centres unmarked) | 11.4%
CC(NC(=O)CCCCCN1C(=O)c2ccccc2C1=O)c1ccc2c(c1)CCCC2 (centres unmarked) | 0.26%
CSc1nc2ccc(S(=O)(=O)N3CCOCC3)cc2s1 | 10.4%
Cc1ccc(S(=O)(=O)NCC(=O)NC2CC2)cc1 | 18%
O=C(CN1C(=O)CSC1=O)Nc1ccc(C(=O)O)cc1 | 3.19%
Cc1nnc(SCc2ccccc2CSc2nnc(C)s2)s1 | 12.9%
O=C1CC2(CCCC2)Oc2ccc(F)cc21 | -0.826%
CC(C)C[C@H](NC(=O)[C@H](Cc1ccccc1)n1c(=O)[nH]c2ccccc2c1=O)C(=O)N1CCC[C@H]1C(=O)O | 8.84%
O=C(CCC(=O)c1cccs1)OCC(=O)N1CCN(C(=O)c2ccco2)CC1 | 11.7%
Cc1ccc(C)c(C(=O)CSc2nnc(C)s2)c1 | 8.84%
CCOc1ccc(Nc2nc3ccccc3n3nnnc23)cc1 | 6.56%
Cc1cccc(C)c1OCC(O)Cn1nnc2ccccc21 (centres unmarked) | 6.24%
Cc1c(Cl)cccc1NC(=O)CC1Oc2ccccc2NC1=O (centres unmarked) | 14.5%
CCCOc1ccc2ccccc2c1/C=N/n1c(C)nnc1-n1nc(C)cc1C | 6.14%
COc1cccc(N=Nc2c(N)[nH]n3c(=O)c4c(nc23)CCCC4)c1 | 3.19%
COc1ccc(Cl)cc1C(=O)n1cnc2ccccc21 | 16.7%
C=CCn1c(SCc2cc(=O)n3cc(C)ccc3n2)nnc1-c1cccc(C)c1 | -15.6%
Cc1cccc(-n2ncc3c2CCCC3NC(=O)c2ccc[n+]([O-])c2)c1C (centres unmarked) | 8.13%

Reference: publication PMC4336329 (PLoS ONE, 2015)
